From ChEMBL document CHEMBL1201862, “PubChem BioAssay data set” (2004) come the findings set out here.

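Step 1: Grow cells in 96-well plates. Step 2: Expose to compound for 48 hours at 5 concentrations. Step 3: Interpolate endpoints linearly; if unreached, use highest concentration. GI50: concentration for 50% inhibition of growth.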 The source made the active and inactive calls. Cut-off read from the data, not from the text of the source: active = GI50 up to about 1.1 µM and inactive = higher.

The assay has as its system NCI-H322M. Description: DTP human tumour cell line panel, 48 h.
Regarding `CCC1c2[nH]c3ccccc3c2C[C@H]2C(=O)NC(CCC(=O)OC(C)(C)C)C(=O)N12` (some centres not stated), the GI50 (commonly the concentration that inhibits growth by half) is inactive: > 100 µM.
With `Oc1cc(-c2ccc[nH]2)nc2cc3c(cc12)OCO3`, the GI50 was inactive: 43.9 µM.
The same measure for `O=C(O)CSSCC(=O)O`: inactive: > 100 µM; for `ClCc1nc2ccccc2[nH]1`: inactive: > 100 µM; for `BrC(=C(c1ccc(OC2CCCCO2)cc1)c1ccc(OC2CCCCO2)cc1)c1ccccc1` (configuration not stated): inactive: > 100 µM.
`O=c1oc2ccccc2n1CCN1CCCCC1`: the GI50 is inactive: > 100 µM.
Regarding `COC(=O)[C@]1(C)CC[C@]2(C)CC[C@]3(C)C4[C@H]5Oc6c(cc7c(c6C)CCC6[C@@]7(C)CC[C@@]7(C)C8[C@](C)(CCC[C@@]8(C)C(=O)OC)CC[C@]67C)O[C@H]5c5c(cc6c(c5C)O[C@@]5(C)C7=CC=C8[C@@](C)(CC[C@@]9(C)[C@@H]%10C[C@](C)(C(=O)OC)CC[C@]%10(C)CC[C@]89C)C7=CC(=O)[C@@]5(O)O6)[C@]4(C)CC[C@@]3(C)C2C1` (some centres not stated), the GI50 was inactive: > 12.5 µM.
`Cc1n[nH]c(=O)n1/N=C/c1c[nH]c2ccccc12`: the GI50 was inactive: > 100 µM.
The same measure for `CCCCCCN(C(=O)Oc1ccccc1)C(C#N)c1ccccc1` (configuration not stated): inactive: > 100 µM; for `O=C(NCCNCCO)N/N=C/c1ccccc1`: inactive: > 100 µM; for `COc1cc2c(c(OC)c1OC)C(=O)[C@H]1OC(=O)N[C@@H]21`: inactive: > 100 µM.
Take `COc1c(C)c(OC)c2c(c1O)[C@@H]1[C@@H]3Cc4c(OC)c(C)c(OC)c(O)c4[C@H](CNC(=O)c4ccc5ccccc5n4)N3[C@@H](C#N)[C@H](C2)N1C`: the GI50 was active: 0.000156 µM.
Turning to `CN(CCCNC(=O)c1cn(C)c2c1ccc1cc(Cl)c(Cl)cc12)CCCNC(=O)c1cn(C)c2c1ccc1cc(Cl)c(Cl)cc12`, the GI50 was inactive: 14.3 µM.
Regarding `NCCCN(CCCCN(CCCN)CCCc1ccccc1)CCCc1ccccc1`, the GI50 is inactive: 5.64 µM.
Consider `Cc1cc(C)c(N[S+]([O-])c2cccc(Cl)c2)c(C)c1` (configuration not stated), for which the GI50 was inactive: 69.5 µM.
On to `CC(=O)Nc1ccc2cc(C)c(O)nc2n1`, for which the GI50 is inactive: > 100 µM.
Turning to `O=C(CC(=O)N1N=C(N2c3ccccc3Sc3ccccc32)CC1c1ccccc1)Nc1ccc(Cl)cc1` (configuration not stated), the GI50 was inactive: > 100 µM.
Turning to `Clc1ccc2oc(CCc3ccccc3)nc2c1`, the GI50 was inactive: > 100 µM.
With `O=C1c2c(Br)sc(Br)c2[C@@H](O)[C@H]1O`, the GI50 is inactive: 16 µM.
For `Cc1cc(=O)n(-c2c(C)cccc2Cl)c(/C=C(\O)c2ccncc2)n1` the value was inactive: > 100 µM; for `COc1ccccc1-n1c(NN)nc2ccc(Br)cc2c1=O`, inactive: 33.4 µM.
With `CC(=O)O[C@H]1[C@@H](OC2CCCC2(c2ccccc2)c2ccccc2)O[N+]([O-])=C[C@@]12COCc1cc3c(cc12)OCO3` (some centres not stated), the GI50 was inactive: 7.94 µM.
For `O=C(/C=C/c1ccccc1O)c1ccc([N+](=O)[O-])cc1`, the GI50 is inactive: 17.2 µM.
As to `CC[C@]12C=CCN3CCC4(c5cc(/N=N/c6ccc([N+](=O)[O-])cc6)c(OC)cc5N(C)[C@H]4[C@@](O)(C(=O)OC)[C@@H]1OC(C)=O)[C@@H]32` (some centres not stated), the GI50 was inactive: 20.7 µM.
The same measure for `CN(C)C(=S)C(Cl)(c1ccccc1)c1ccccc1`: inactive: > 100 µM; for `O=[PH](O)c1cc2c3ccccc3ccc2c2ccccc12`: inactive: > 100 µM; for `Brc1ccc(C2CC3(c4ccccc4)ON=C(c4ccccc4)N3c3ccccc3S2)cc1` (configuration not stated): inactive: > 100 µM.
Turning to `COC(=O)Cc1ccc2c(c1)Sc1ccc(CC(=O)OC)cc1N2C`, the GI50 is inactive: 38.5 µM.
On to `CC(C)(C)c1cc2c3c(c1)C(C(F)(F)F)(C(F)(F)F)O[Te]3(C)OC2(C(F)(F)F)C(F)(F)F`, for which the GI50 was inactive: > 100 µM.
Turning to `O=C(Nc1ccccc1)c1cc(S(=O)(=O)Nc2n[nH]c(=O)[nH]2)c(SSc2cc(Cl)c(C(=O)Nc3ccccc3)cc2S(=O)(=O)Nc2n[nH]c(=O)[nH]2)cc1Cl`, the GI50 was inactive: > 100 µM.
Turning to `S=c1sc2c(n1-c1ccccc1)N=CNC2S` (configuration not stated), the GI50 was inactive: > 100 µM.
For `CC(=O)OCC(OC(C)=O)C(OC(C)=O)C(OC(C)=O)C(/C=N\Nc1nc2ccccc2c(=O)[nH]1)=N/Nc1nc2ccccc2c(=O)[nH]1` (configuration not stated), the GI50 is inactive: > 100 µM.
In the case of `COC(=O)c1c/c(=N\NC(=O)CC(=O)Nc2ccc(C)cc2)c2ccccc2o1`, the GI50 is inactive: > 100 µM.
On to `CNC(=O)C(C)C1CCC2(C)C=CC(=O)C(C)=C2C1O` (configuration not stated), for which the GI50 was inactive: > 100 µM.
Turning to `C1CCC2C(C1)CCCC2NC1=NCCO1` (configuration not stated), the GI50 is inactive: > 100 µM.
The same measure for `O=C1C(Cl)C(c2cc3cc(Br)ccc3nc2Cl)N1c1ccc(F)c(Cl)c1` (configuration not stated): inactive: 12.1 µM; for `C#CC1(O)CCC2C3CCc4cc(Oc5nc(F)nc(-c6c7ccccc7c7sc8ccccc8n67)n5)ccc4C3CC[C@@]21C` (some centres not stated): inactive: > 100 µM.
As for `C#CCN(Cc1ccc2nc(-c3ccccc3)c(Cl)nc2c1)c1ccc(Cl)c(Cl)c1`, the GI50 is inactive: 86.9 µM.
Consider `Cc1cn(C2CC(O)C(Cn3nncc3Cn3ccc(=O)[nH]c3=O)O2)c(=O)[nH]c1=O` (configuration not stated), for which the GI50 is inactive: > 100 µM.
For `CNCCCn1c2ccccc2c2c3c(c(-c4ccsc4)cc21)C(=O)NC3=O`, the GI50 is active: 0.986 µM.
As to `Nc1ncc2c(n1)-c1ccccc1OC2N1CCOCC1` (configuration not stated), the GI50 is inactive: > 100 µM.
For `N#Cc1c(Cl)nc2ccccc2c1N=[N+]=[N-]` the value was inactive: 3.42 µM.
As to `Cc1c(C)c(C)n(C2OC(CO)C(O)C(O)C2O)c(=S)c1C#N` (configuration not stated), the GI50 is inactive: > 100 µM.
For `Cc1cc2c(CC(=O)O)n[nH]c2c(C(=O)O)c1C` the value was inactive: > 100 µM; for `CC(=O)OC1CC(n2cc(F)c(=O)[nH]c2=O)OC1CO` (configuration not stated), inactive: 15.2 µM; for `O=C(O)c1cccc(S(=O)(=O)NN2C(=O)CSC2c2c(O)ccc3ccccc23)c1` (configuration not stated), inactive: 23.5 µM.
Consider `CCOc1ccc(N2C(=O)C3c4[nH]c5ccccc5c4C4CCC(C(C)(C)C)CC4C3C2=O)cc1` (configuration not stated), for which the GI50 is inactive: > 100 µM.
Turning to `NS(=O)(=O)c1ccc(Nc2c3ccccc3nc3c(C(=O)NC(CO)(CO)CO)cccc23)cc1`, the GI50 was active: 0.151 µM.
`N#Cc1nn(C(N)=O)c(N)c1C#N`: the GI50 was inactive: > 100 µM.
As for `CN1C(=O)C2C=CC1C1CCC2N(C)C1=O` (configuration not stated), the GI50 is inactive: > 100 µM.
As for `CCCCCCCCc1cc2c(O)c(c1)Cc1cc(CCCCCCCC)cc(c1O)Cc1cc(CCCCCCCC)cc(c1O)Cc1cc(CCCCCCCC)cc(c1O)Cc1cc(CCCCCCCC)cc(c1O)Cc1cc(CCCCCCCC)cc(c1O)C2`, the GI50 is inactive: > 100 µM.
For the compound `[O-][S+]1SC(=S)C2C=CC=NC21` (configuration not stated), the GI50 was inactive: 27.6 µM.
Regarding `COc1ccc(-c2cc(N3CCN(c4ccc(Cl)cc4)CC3)c(C#N)c(=O)o2)cc1`, the GI50 is active: 0.132 µM.
In the case of `NNC(=O)C1(NC(=O)c2ccccc2)C(c2ccccc2)C(c2ccccc2)=NN1c1ccccc1` (configuration not stated), the GI50 was inactive: 38.6 µM.
In the case of `COc1cc2c(cc1OC)[C@H]1C(COC(=O)Nc3ccccc3)CN1CC2` (some centres not stated), the GI50 was inactive: 51.5 µM.
In the case of `Clc1cccc(-c2nnc(-c3nn(-c4ccccc4)c4nc5ccccc5nc34)o2)c1`, the GI50 was inactive: > 100 µM.
As to `COc1cc2cc3c4c(cc(OC)c(OC)c4c2cc1OC)CCN3C(=O)OCCBr`, the GI50 is inactive: > 100 µM.
Consider `Cc1cccc(NS(=O)(=O)c2ccc3c(c2)OCCOCCOCCOCCO3)c1`, for which the GI50 is inactive: > 100 µM.
For `CCCc1ccc(OCC(=O)N/N=C/c2c(-c3ccccc3)[nH]c3ccccc23)cc1`, the GI50 is inactive: 22.5 µM.
Consider `C/C(=N\O)c1ccc2ccc3ccccc3c2c1`, for which the GI50 is inactive: 34.4 µM.
For `N#CC(C(=N/O)/C(=N/O)C(C#N)c1ccc(Cl)cc1)c1ccc(Cl)cc1` (configuration not stated), the GI50 is inactive: > 100 µM.
`CCOC(=O)C(Cc1cccn1C(=O)OC(C)(C)C)[N+](=O)[O-]` (configuration not stated): the GI50 is inactive: 31.6 µM.
As to `O=C1CNNC(Cn2nc(-c3ccccc3)c3ccccc3c2=O)=N1`, the GI50 was inactive: > 100 µM.
Consider `C=C[C@@H](C)[C@]1(C(=O)OC)CCCC12OCCO2`, for which the GI50 was inactive: > 100 µM.
Regarding `CC1(C)CC(=O)C2=C(C1)N(c1ccccc1)C1(O)C=CC(O)=C3C(=O)c4ccccc4C(=O)C321` (configuration not stated), the GI50 was inactive: 25.4 µM.
In the case of `CCc1ccccc1NC(=O)C1=C(C)NC(C)=C(C(=O)Nc2ccccc2CC)C1c1ccc2c(c1)OCO2`, the GI50 was inactive: 39.9 µM.
For `COC(=O)C1CC/C(=N\c2cccc(C(F)(F)F)c2)N1` (configuration not stated) the value was inactive: > 100 µM; for `CCOC(=O)C(=CNC(=S)c1ccncc1)C(=O)OCC`, inactive: > 100 µM; for `COc1cc(C(=O)OC2CC34CCNC35CC(OC5(OC)C2O)c2cc3c(cc24)OCO3)ccc1O` (configuration not stated), inactive: > 100 µM.
For the compound `N#CC12CC3(CCC1CCC1(C2)OCCO1)OCCO3` (configuration not stated), the GI50 was inactive: > 100 µM.
For the compound `COc1ccc(C(C)NNC(=O)c2cc[n+]([BH2-]C#N)cc2)cc1F` (configuration not stated), the GI50 is inactive: > 100 µM.
As for `CCO[C@]12C[C@H](OC)[C@@]3(O)CC(C1[C@H]3OCc1ccccc1)C13C4C2[C@H](OC)C1[C@](COC)(CN4CC)[C@H](O)C[C@@H]3OC` (some centres not stated), the GI50 was inactive: > 100 µM.
Consider `C=C(C=O)CCCC(C)[C@@H]1CCC23CC12CCC1[C@@]2(C)CCC(OC(C)=O)C(C)(C)C2CC(OC2OC(COC(C)=O)C(O)C(O)C2O)[C@]13C` (some centres not stated), for which the GI50 is inactive: 7.55 µM.
For `O=C1CCC(O)=C1O`, the GI50 was inactive: > 100 µM.
Take `O=Cc1cc2c(o1)C(=O)c1ccccc1C2=O`: the GI50 was inactive: 1.39 µM.
For the compound `C=C1C(=O)O[C@@H]2C(=O)[C@@H](C)CCC/C(C)=C/CC[C@@]3(C)O[C@@H]3C[C@@H]12`, the GI50 is inactive: > 100 µM.
As for `Cc1ccnc2nc(-c3ccc(Cl)cc3)cc(O)c12`, the GI50 is inactive: 4.94 µM.
